{"source": "PubChem BioAssay AID488969", "about": "(Vanderbilt High Throughput Screening Facility, 2010)", "note": "Over roughly 110,000 compounds, “z-score” has its median near -0.1; the highest 2% begin near 2. Some of the results follow. Calls of active or inactive are those of the source.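 The calls were made as follows: active = z-score in the third read window above 3 or below -3; inactive = the rest.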", "data": [{"target": "Metabotropic glutamate receptor 8 (Rattus norvegicus) (UniProt P70579)", "sequence (P70579 whole entry, looked up)": "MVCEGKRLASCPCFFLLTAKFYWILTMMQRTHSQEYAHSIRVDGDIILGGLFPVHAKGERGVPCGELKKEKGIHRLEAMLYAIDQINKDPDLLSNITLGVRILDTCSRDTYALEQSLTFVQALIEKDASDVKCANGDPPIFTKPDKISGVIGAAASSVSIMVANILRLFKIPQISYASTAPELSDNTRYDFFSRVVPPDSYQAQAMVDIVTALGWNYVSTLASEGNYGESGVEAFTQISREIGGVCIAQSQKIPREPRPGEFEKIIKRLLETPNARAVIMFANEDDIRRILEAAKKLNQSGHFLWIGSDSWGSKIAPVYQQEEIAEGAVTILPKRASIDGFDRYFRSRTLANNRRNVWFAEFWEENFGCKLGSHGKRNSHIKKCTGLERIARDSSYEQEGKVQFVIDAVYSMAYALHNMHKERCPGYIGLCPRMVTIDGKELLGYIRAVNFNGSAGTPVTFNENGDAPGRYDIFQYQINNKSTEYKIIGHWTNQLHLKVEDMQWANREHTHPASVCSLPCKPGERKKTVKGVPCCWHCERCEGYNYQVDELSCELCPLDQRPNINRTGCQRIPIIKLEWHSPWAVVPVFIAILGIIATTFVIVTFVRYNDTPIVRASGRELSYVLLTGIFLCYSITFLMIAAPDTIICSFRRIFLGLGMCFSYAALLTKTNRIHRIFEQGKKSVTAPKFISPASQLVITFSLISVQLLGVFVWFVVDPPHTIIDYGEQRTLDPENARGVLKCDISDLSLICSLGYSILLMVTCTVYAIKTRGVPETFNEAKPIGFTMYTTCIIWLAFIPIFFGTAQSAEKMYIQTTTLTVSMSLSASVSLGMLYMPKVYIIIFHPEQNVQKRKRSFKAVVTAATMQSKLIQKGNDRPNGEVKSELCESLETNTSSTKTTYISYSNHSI", "test": "rat mGluR8 modulators via GIRK flux, primary screen, cell-based, thallium flux, HTS (AID 488969)", "conditions": "HEK293 rat mGluR8, GIRK (G protein-gated inwardly rectifying potassium channel) thallium flux, FluoZin2; at 10 µM; stronger effect = higher value; submaximal glutamate (EC20) added with thallium", "values": [{"smiles": "COc1ccc(Cn2c(-c3ccc(C)cc3)nc3c(c(=O)c4ccccc4n3C)c2=O)cc1", "z-score": 0.0797}, {"smiles": "CCC(C)c1ccc2oc(-c3ccc(NC(=O)c4ncn[nH]4)cc3)nc2c1", "note": "(centres undefined)", "z-score": -0.184}, {"smiles": "CCOC(=O)C(Sc1nnc2c3ccccc3n(CC)c2n1)C(=O)OCC", "z-score": -1.73}, {"smiles": "O=C(Cn1nc(Cc2cccnc2)c2ccccc2c1=O)Nc1ccc2c(c1)OCO2", "z-score": -0.0637}, {"smiles": "CC(C)CCOc1ccc(C(=O)C[N+]2(C)CCOCC2)cc1", "z-score": 0.236}, {"smiles": "Cn1cc(SCC(=O)N2CCN(c3ccccc3)CC2)c2ccccc21", "z-score": -0.202}, {"smiles": "Cc1oc(-c2ccccc2)nc1Cn1cccc1C1=NC(c2ccccc2)CO1", "note": "(centres undefined)", "z-score": 0.517}, {"smiles": "O=C(NCc1ccco1)c1cc(C(=O)C2CCCCC2)c[nH]1", "z-score": -0.0253}, {"smiles": "COC(=O)NNC(=O)c1ccc(Cl)cc1Cl", "z-score": -0.27}, {"smiles": "CCOCCc1nnc(NC(=O)c2ccc(OC)c(OC)c2)s1", "z-score": 0.0276}, {"smiles": "COc1ccc(C(=O)/C=C/c2ccc(OC)c(COc3ccccc3F)c2)cc1", "z-score": -0.224}, {"smiles": "COc1ccc(C(=O)c2sc(Nc3cccc(OC)c3)c(C(=O)Nc3cccc(C)c3C)c2N)cc1", "z-score": -0.228}, {"smiles": "CCOC(=O)C1CCN(S(=O)(=O)c2ccc(C(=O)OC)cc2)CC1", "z-score": 0.0234}, {"smiles": "Cc1ccc(CSc2nnnn2C)cc1", "z-score": -0.0724}, {"smiles": "COc1cc(/C=C2\\S/C(=N/S(=O)(=O)c3ccccc3)NC2=O)c([N+](=O)[O-])cc1OC", "z-score": -1.25}, {"smiles": "Cc1ccc(S(=O)(=O)N2CCOCC2)cc1NC(=O)CN1CCN(c2ccc(O)cc2)CC1", "z-score": -0.162}, {"smiles": "COc1cccc(CNCC(O)(c2ccc(Cl)cc2)c2ccc(Cl)cc2)c1", "z-score": -0.327}, {"smiles": "O=C(NCCCN=C1NS(=O)(=O)c2ccccc21)c1ccco1", "z-score": -0.143}, {"smiles": "Cc1cccc(C)c1NC(=O)C1(N(Cc2ccco2)C(=O)c2ccccn2)CCCC1", "z-score": 0.0787}, {"smiles": "Cc1cc(Oc2ccc(C)c(Cl)c2)nc(SCC(=O)c2ccccc2)n1", "z-score": -0.36}, {"smiles": "O=C(Nn1c(=O)[nH]c2ccsc2c1=O)c1ccccc1", "z-score": 0.125}, {"smiles": "COc1cc2c(cc1NC(=O)C(C)Sc1nc3ccccc3n1C)oc1ccccc12", "note": "(centres undefined)", "z-score": -0.642}, {"smiles": "Cc1ccc(C(=O)NCc2ccc3c(c2)OCO3)cc1N1CCCC1=O", "z-score": -0.117}, {"smiles": "CC(C)CNC(=O)CSc1nnc(-c2cccc(S(=O)(=O)N3CCCCC3)c2)o1", "z-score": 0.198}, {"smiles": "COc1ccc(-c2nnc3c4ccccc4c(C)nn23)cc1S(=O)(=O)N1CCN(CCO)CC1", "z-score": -0.411}, {"smiles": "N#Cc1c(-c2ccccc2)ccn(Cc2ccc(Cl)cc2)c1=O", "z-score": 0.097}, {"smiles": "N#Cc1ccccc1CN1C(=O)S/C(=C/c2cccn2-c2cccc(C(=O)O)c2)C1=O", "z-score": -2.19}, {"smiles": "CCCn1c(=O)c(-c2ccccc2)c(O)c2ccccc21", "z-score": 1.54}, {"smiles": "COc1ccc(Nc2cc(C(=O)NCc3ccco3)c3ccccc3n2)cc1", "z-score": -0.00632}, {"smiles": "O=C(c1ccco1)N1CCN(C(c2coc3ccc(Cl)cc3c2=O)c2nnnn2C2CCCC2)CC1", "note": "(centres undefined)", "z-score": -0.379}, {"smiles": "CN(C)NC(=S)Nc1ccc(Cl)cc1", "z-score": -0.117}, {"smiles": "CC(=O)Nc1ccc(S(=O)(=O)NCc2cn3ccsc3n2)cc1", "z-score": 0.124}, {"smiles": "COn1c(SCc2ccc(Cl)cc2)nc2ccccc2c1=O", "z-score": 0.722}, {"smiles": "COC(=O)c1ccc(NC(=O)CCn2cccc2)cc1", "z-score": -0.418}, {"smiles": "C=CCN(CC=C)S(=O)(=O)c1ccc(NC(=S)NC(=O)/C=C/c2cccc3ccccc23)cc1", "z-score": 0.0256}, {"smiles": "COc1ccc(S(=O)(=O)N2Cc3ccccc3CC2C(=O)N2CCOCC2)cc1OC", "note": "(centres undefined)", "z-score": -0.288}, {"smiles": "CN(CC(=O)NCc1ccccc1)S(=O)(=O)c1cnc[nH]1", "z-score": 0.053}, {"smiles": "C/C(N)=C(/C#N)C(=O)CSc1nnnn1-c1ccc(C)cc1", "z-score": 0.331}, {"smiles": "CC1(C)Cc2ccccc2C(N)=C1C#N", "z-score": -0.448}, {"smiles": "CC(=O)OC(C(=O)NCc1ccco1)c1cccnc1", "note": "(centres undefined)", "z-score": 0.298}, {"smiles": "O=C(NNC(=O)c1sccc1-n1cccc1)c1ccc(Cl)cc1", "z-score": "active: 3.06"}, {"smiles": "COc1ccc(C(=O)OC2CCN(c3ncc(C(F)(F)F)cc3Cl)CC2)cc1", "z-score": -0.0959}, {"smiles": "COc1ccc(CNc2cc([N+](=O)[O-])ccc2OC)cc1", "z-score": -0.252}, {"smiles": "CCn1c(SCCN2CCCCC2)nnc1-c1ccc(S(=O)(=O)N2CCOCC2)cc1", "z-score": -0.238}, {"smiles": "CCCNC(=O)CCC(=O)Nc1ncc(-c2ccc(C)cc2)n1C", "z-score": -0.382}, {"smiles": "Cc1nnc(NC(=O)Cn2cnc3c2c(=O)n(C)c(=O)n3C)s1", "z-score": -0.0583}, {"smiles": "c1ccc(-c2nnc3n2CCCC3)cc1", "z-score": -0.78}, {"smiles": "CC(=O)C1=C(O)C(=O)N(c2cccc(C(=O)O)c2)C1c1ccccc1F", "note": "(centres undefined)", "z-score": -0.361}, {"smiles": "O=C(CCN1C(=O)/C(=C/c2cccc(Br)c2)SC1=S)NNC(=O)c1cccnc1", "z-score": -0.178}, {"smiles": "O=C1c2ccccc2C(=O)c2c1ccc1c(=O)n(C3CCCCC3)[nH]c21", "z-score": -0.0596}, {"smiles": "COc1ccc(NC(=O)/C(C#N)=C\\C=C\\c2ccco2)cc1", "z-score": 0.388}, {"smiles": "CON1C(=O)C(=O)N(OC)C(C)(C)C1C", "note": "(centres undefined)", "z-score": 0.138}, {"smiles": "CCC(C)N1CC23C=CC(O2)C(C(=O)OCc2ccccc2)C3C1=O", "note": "(centres undefined)", "z-score": 0.179}, {"smiles": "CCOc1nc(-c2ccc(OC)cc2)ccc1-c1noc(-c2cccnc2)n1", "z-score": -0.336}, {"smiles": "O=C(Cn1nnc2ccccc2c1=O)NC1CCCc2ccccc21", "note": "(centres undefined)", "z-score": 0.15}, {"smiles": "COc1ccc(-c2cc(C(F)F)n3ncc(C(=O)N4CCN5CCCC5C4)c3n2)cc1", "note": "(centres undefined)", "z-score": -0.466}, {"smiles": "Cc1cc(C)c2c(=O)[nH]c(SCC(=O)c3ccc(C(C)C)cc3)nc2n1", "z-score": 0.152}, {"smiles": "CCCNC(=O)c1n[nH]c(=O)c2ccccc12", "z-score": -0.0463}, {"smiles": "Cc1ccccc1N1C(=O)CN(Cc2sccc2C)C1=S", "z-score": -0.181}, {"smiles": "CCOc1ccc(C2CC(c3ccc(Br)cc3)Nc3nc(N)nn32)cc1", "note": "(centres undefined)", "z-score": 0.375}, {"smiles": "Cc1cc(N2CCOCC2)nc2ccccc12", "z-score": -0.0968}, {"smiles": "CNC(=O)c1c(C)nc(SCC(=O)NCc2ccc(OC)cc2)c(C#N)c1-c1ccco1", "z-score": 0.161}, {"smiles": "COc1ccc(S(=O)(=O)Nc2ccc3c(c2)OCO3)cc1OC", "z-score": 0.772}, {"smiles": "COc1cc2ncnc(NCc3ccc(C)cc3)c2cc1OC", "z-score": -0.387}, {"smiles": "COc1ccc(/C=C/C(=O)c2ccc(C)c([N+](=O)[O-])c2)cc1O", "z-score": -0.153}, {"smiles": "O=c1[nH][nH]c(C(F)(F)F)c1C=Nc1cccc(Cl)c1", "z-score": 0.34}, {"smiles": "Cc1ccc(N2CC(C(=O)N/N=C/c3sccc3C)CC2=O)cc1", "note": "(centres undefined)", "z-score": "active: 3.3"}, {"smiles": "CC(=O)C1=C(O)C(=O)N(c2ccc(S(N)(=O)=O)cc2)C1c1ccc([N+](=O)[O-])cc1", "note": "(centres undefined)", "z-score": 0.114}, {"smiles": "CCOC(=O)N1CCC(NC(=O)c2ccc(CNS(=O)(=O)c3ccc(F)cc3)cc2)CC1", "z-score": -0.118}]}]}
